Reference: publication PMC12820563, “FoxP3 forms a head-to-head dimer in vivo and stabilizes its multimerization on adjacent microsatellites”
Some of the results follow.

What follows are sequences tested against T1, MBP-FoxP1dN (Mus musculus, UniProt P58462 326-579) (assay: PD-seq (MBP pull-down with sequencing); 20 mM Tris-HCl pH 7.5, 100 mM NaCl, 1.5 mM MgCl2, 0.4 uM protein, 0.1 uM dsDNA library, 30 min, room temperature, amylose pull-down; high values mean tight binding). Conditions: protein: recombinant; tags: His6-MBP; chain copies: 2; dsDNA, one strand shown.
T1 sequence: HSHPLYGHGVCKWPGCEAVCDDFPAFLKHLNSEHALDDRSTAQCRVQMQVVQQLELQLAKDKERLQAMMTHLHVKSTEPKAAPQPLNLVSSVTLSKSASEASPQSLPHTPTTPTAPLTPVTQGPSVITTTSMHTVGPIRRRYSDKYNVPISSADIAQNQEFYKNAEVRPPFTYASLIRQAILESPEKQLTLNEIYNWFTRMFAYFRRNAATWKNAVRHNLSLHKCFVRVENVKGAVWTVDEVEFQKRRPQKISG
Procedure, shortened: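 A fragment of mouse FoxP3 or FoxP1 without its N-terminus, carrying a His6-MBP tag and produced in E. coli, was combined at 0.4 µM with a 0.1 µM degenerate double-stranded DNA library filled in with Klenow. The mixture sat for 30 min at room temperature in Tris pH 7.5 buffer containing NaCl and MgCl2. Protein–DNA complexes were captured on amylose resin, washed three times, and the DNA was freed with proteinase K, barcoded by PCR and sequenced on Illumina. Binding is expressed as reads-per-million enrichment of pull-down over input, with replicates pooled.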

Sequence	binding signal
GATGATTGTTCTCCCAGCTGATGAATTCAGGGTATCGAGTAAACAAATTTTCCTAATCTTTCTGTTCAAGCGCCATCTAC	0.862 RPM ratio (pull-down/input)
GATGATTGTTCTCCCAGCTGATGAATTGCAAGGATCGAGTAAACAAATTTTCCTAATCTTTCTGTTCAAGCGCCATCTAC	0.989 RPM ratio (pull-down/input)
GATGATTGTTCTCCCAGCTGATGAATTCCATTTGTCGAGTAAACAAATTTTCCTAATCTTTCTGTTCAAGCGCCATCTAC	0.974 RPM ratio (pull-down/input)
GATGATTGTTCTCCCAGCTGATGAATTGCACCGGTCGAGTAAACAAATTTTCCTAATCTTTCTGTTCAAGCGCCATCTAC	0.989 RPM ratio (pull-down/input)
GATGATTGTTCTCCCAGCTGATGAATTGTATACATCGAGTAAACAAATTTTCCTAATCTTTCTGTTCAAGCGCCATCTAC	2.35 RPM ratio (pull-down/input)
GATGATTGTTCTCCCAGCTGATGAATTGTTCTGGTCGAGTAAACAAATTTTCCTAATCTTTCTGTTCAAGCGCCATCTAC	1.12 RPM ratio (pull-down/input)
GATGATTGTTCTCCCAGCTGATGAATTCTGTGTGTCGAGTAAACAAATTTTCCTAATCTTTCTGTTCAAGCGCCATCTAC	1.18 RPM ratio (pull-down/input)
GATGATTGTTCTCCCAGCTGATGAATTTCGGCCATCGAGTAAACAAATTTTCCTAATCTTTCTGTTCAAGCGCCATCTAC	0.772 RPM ratio (pull-down/input)
GATGATTGTTCTCCCAGCTGATGAATTAAGTCTTTCGAGTAAACAAATTTTCCTAATCTTTCTGTTCAAGCGCCATCTAC	0.894 RPM ratio (pull-down/input)
GATGATTGTTCTCCCAGCTGATGAATTGTAGGCCTCGAGTAAACAAATTTTCCTAATCTTTCTGTTCAAGCGCCATCTAC	0.839 RPM ratio (pull-down/input)
GATGATTGTTCTCCCAGCTGATGAATTTGACTTGTCGAGTAAACAAATTTTCCTAATCTTTCTGTTCAAGCGCCATCTAC	0.82 RPM ratio (pull-down/input)
GATGATTGTTCTCCCAGCTGATGAATTCCTTAAATCGAGTAAACAAATTTTCCTAATCTTTCTGTTCAAGCGCCATCTAC	0.991 RPM ratio (pull-down/input)
GATGATTGTTCTCCCAGCTGATGAATTAACCGGTTCGAGTAAACAAATTTTCCTAATCTTTCTGTTCAAGCGCCATCTAC	0.868 RPM ratio (pull-down/input)
GATGATTGTTCTCCCAGCTGATGAATTGGAGGCGTCGAGTAAACAAATTTTCCTAATCTTTCTGTTCAAGCGCCATCTAC	0.961 RPM ratio (pull-down/input)
GATGATTGTTCTCCCAGCTGATGAATTTTTAGCTTCGAGTAAACAAATTTTCCTAATCTTTCTGTTCAAGCGCCATCTAC	0.925 RPM ratio (pull-down/input)
GATGATTGTTCTCCCAGCTGATGAATTAATCATATCGAGTAAACAAATTTTCCTAATCTTTCTGTTCAAGCGCCATCTAC	1.07 RPM ratio (pull-down/input)
GATGATTGTTCTCCCAGCTGATGAATTTATTTGATCGAGTAAACAAATTTTCCTAATCTTTCTGTTCAAGCGCCATCTAC	1.2 RPM ratio (pull-down/input)
GATGATTGTTCTCCCAGCTGATGAATTCTAGATCTCGAGTAAACAAATTTTCCTAATCTTTCTGTTCAAGCGCCATCTAC	0.764 RPM ratio (pull-down/input)
GATGATTGTTCTCCCAGCTGATGAATTAGTACACTCGAGTAAACAAATTTTCCTAATCTTTCTGTTCAAGCGCCATCTAC	1.17 RPM ratio (pull-down/input)
GATGATTGTTCTCCCAGCTGATGAATTGCGCGAATCGAGTAAACAAATTTTCCTAATCTTTCTGTTCAAGCGCCATCTAC	1.14 RPM ratio (pull-down/input)

Sequence	binding signal
GATGATTGTTCTCCCAGCTGATGAATTACTCGATTCGAGTAAACAAATTTTCCTAATCTTTCTGTTCAAGCGCCATCTAC	0.968 RPM ratio (pull-down/input)
GATGATTGTTCTCCCAGCTGATGAATTATACGGATCGAGTAAACAAATTTTCCTAATCTTTCTGTTCAAGCGCCATCTAC	0.95 RPM ratio (pull-down/input)
GATGATTGTTCTCCCAGCTGATGAATTCGCAGGCTCGAGTAAACAAATTTTCCTAATCTTTCTGTTCAAGCGCCATCTAC	0.738 RPM ratio (pull-down/input)
GATGATTGTTCTCCCAGCTGATGAATTGCCTTCCTCGAGTAAACAAATTTTCCTAATCTTTCTGTTCAAGCGCCATCTAC	0.941 RPM ratio (pull-down/input)
GATGATTGTTCTCCCAGCTGATGAATTTGAACTCTCGAGTAAACAAATTTTCCTAATCTTTCTGTTCAAGCGCCATCTAC	0.756 RPM ratio (pull-down/input)
GATGATTGTTCTCCCAGCTGATGAATTTAGGTGATCGAGTAAACAAATTTTCCTAATCTTTCTGTTCAAGCGCCATCTAC	1.02 RPM ratio (pull-down/input)
GATGATTGTTCTCCCAGCTGATGAATTATAGGCCTCGAGTAAACAAATTTTCCTAATCTTTCTGTTCAAGCGCCATCTAC	0.956 RPM ratio (pull-down/input)
GATGATTGTTCTCCCAGCTGATGAATTAGTACGTTCGAGTAAACAAATTTTCCTAATCTTTCTGTTCAAGCGCCATCTAC	1.01 RPM ratio (pull-down/input)
GATGATTGTTCTCCCAGCTGATGAATTCCTACCTTCGAGTAAACAAATTTTCCTAATCTTTCTGTTCAAGCGCCATCTAC	0.834 RPM ratio (pull-down/input)
GATGATTGTTCTCCCAGCTGATGAATTTGGTTACTCGAGTAAACAAATTTTCCTAATCTTTCTGTTCAAGCGCCATCTAC	1.01 RPM ratio (pull-down/input)
GATGATTGTTCTCCCAGCTGATGAATTCGCACGCTCGAGTAAACAAATTTTCCTAATCTTTCTGTTCAAGCGCCATCTAC	0.915 RPM ratio (pull-down/input)
GATGATTGTTCTCCCAGCTGATGAATTACTGACTTCGAGTAAACAAATTTTCCTAATCTTTCTGTTCAAGCGCCATCTAC	1.05 RPM ratio (pull-down/input)
GATGATTGTTCTCCCAGCTGATGAATTTGGTTAATCGAGTAAACAAATTTTCCTAATCTTTCTGTTCAAGCGCCATCTAC	0.95 RPM ratio (pull-down/input)
GATGATTGTTCTCCCAGCTGATGAATTACGCGAATCGAGTAAACAAATTTTCCTAATCTTTCTGTTCAAGCGCCATCTAC	1.04 RPM ratio (pull-down/input)
GATGATTGTTCTCCCAGCTGATGAATTGCTCAACTCGAGTAAACAAATTTTCCTAATCTTTCTGTTCAAGCGCCATCTAC	0.995 RPM ratio (pull-down/input)
GATGATTGTTCTCCCAGCTGATGAATTCGGGCCATCGAGTAAACAAATTTTCCTAATCTTTCTGTTCAAGCGCCATCTAC	0.833 RPM ratio (pull-down/input)
GATGATTGTTCTCCCAGCTGATGAATTTATGTACTCGAGTAAACAAATTTTCCTAATCTTTCTGTTCAAGCGCCATCTAC	1.69 RPM ratio (pull-down/input)
GATGATTGTTCTCCCAGCTGATGAATTTAACGTATCGAGTAAACAAATTTTCCTAATCTTTCTGTTCAAGCGCCATCTAC	1.02 RPM ratio (pull-down/input)
GATGATTGTTCTCCCAGCTGATGAATTGACTACATCGAGTAAACAAATTTTCCTAATCTTTCTGTTCAAGCGCCATCTAC	1.22 RPM ratio (pull-down/input)
GATGATTGTTCTCCCAGCTGATGAATTATTATTGTCGAGTAAACAAATTTTCCTAATCTTTCTGTTCAAGCGCCATCTAC	3.2 RPM ratio (pull-down/input)
